Here are results for 1 molecule from patent publication US6646113 (University of Pennsylvania, dated 2003).

Assay [1] has as its target T1, SIP1 (human), in vitro translated and 35S-labeled (human, UniProt O14893 1-280, limits assumed).
T1 construct: Made in rabbit reticulocyte lysate; also called full-length SIP1; Gemin2
T1 sequence: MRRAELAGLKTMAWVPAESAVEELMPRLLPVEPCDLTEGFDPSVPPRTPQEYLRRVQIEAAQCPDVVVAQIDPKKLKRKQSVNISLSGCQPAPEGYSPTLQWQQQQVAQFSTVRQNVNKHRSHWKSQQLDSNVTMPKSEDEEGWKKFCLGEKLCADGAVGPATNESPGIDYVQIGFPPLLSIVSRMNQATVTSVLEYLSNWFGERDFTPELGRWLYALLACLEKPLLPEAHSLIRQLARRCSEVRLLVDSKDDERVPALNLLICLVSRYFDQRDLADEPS
The assay can be described thus: GST pull-down, 35S IVT protein.

The next assay has as its target T2, myc-tagged SMNY272C (human, UniProt Q16637).
T2 construct: In vitro translated (35S) or expressed in 293T cells
The assay can be described thus: GST pull-down, 35S IVT protein.

Assay [2] has as its target MBP-SMN wild-type fusion, in vitro translated (human, UniProt Q16637). The assay can be described thus: GST pull-down, 35S IVT protein (FIG. 41).
Assay [3] has as its target T3, SMN (human), in vitro translated and 35S-labeled (human, UniProt Q16637).
T3 construct: also called 35[S]SMN
Put plainly: GST beads preincubated with His-SMN, then 35S IVT protein.

B1: GST alone (other)
chain: not shown
notes: Negative control on glutathione-Sepharose; also called glutathione S-transferase
For B1, the binding result in assay [1] was “no binding (tested: 200 mM NaCl)”; with myc-tagged SMNY272C, “no binding”; in assay [2], “no binding”; in assay [3] it was “no binding”.
